According to PubChem BioAssay AID1631 (National Center for Advancing Translational Sciences (NCATS), 2009):
The campaign covered roughly 260,000 compounds. About 890 (0.34%) were called active. Inconclusive means that the source gave no clear call. Such entries were picked first, then a sample of the others. Calls come from the whole dose curve; as a rule, active = well fitted activation curve with a large enough effect; inconclusive = small, poorly fitted or top-dose-only effect; inactive = no such curve, though single readings can be large or run the other way. Where the call is inconclusive, the potency comes from a doubtful curve fit.

The compounds below were run against Pyruvate kinase PKM (Homo sapiens) (UniProt P14618) (assay: qHTS Assay for Activators of Human Muscle isoform 2 Pyruvate Kinase). Conditions: purified PKM2, Kinase-Glo ATP luminescence; Potency: activation; activation: at 57.5 µM (top of the series), 0% is enzyme alone, no compound.
How it was run: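 ATP formation by purified human PK-M2, quantified via coupled luciferase luminescence after 1 h at room temperature with 0.1 mM ADP and 0.5 mM PEP final.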
% is set by controls: 0 for no effect and ±100 for the full control effect; potency is the fitted concentration of half-maximal effect; tags give direction and shape of the fitted curve.
Note: nearly all actives have a fitted effect of over 55% in size.

UniProt P14618, sequence (P14618 whole entry, looked up, canonical isoform): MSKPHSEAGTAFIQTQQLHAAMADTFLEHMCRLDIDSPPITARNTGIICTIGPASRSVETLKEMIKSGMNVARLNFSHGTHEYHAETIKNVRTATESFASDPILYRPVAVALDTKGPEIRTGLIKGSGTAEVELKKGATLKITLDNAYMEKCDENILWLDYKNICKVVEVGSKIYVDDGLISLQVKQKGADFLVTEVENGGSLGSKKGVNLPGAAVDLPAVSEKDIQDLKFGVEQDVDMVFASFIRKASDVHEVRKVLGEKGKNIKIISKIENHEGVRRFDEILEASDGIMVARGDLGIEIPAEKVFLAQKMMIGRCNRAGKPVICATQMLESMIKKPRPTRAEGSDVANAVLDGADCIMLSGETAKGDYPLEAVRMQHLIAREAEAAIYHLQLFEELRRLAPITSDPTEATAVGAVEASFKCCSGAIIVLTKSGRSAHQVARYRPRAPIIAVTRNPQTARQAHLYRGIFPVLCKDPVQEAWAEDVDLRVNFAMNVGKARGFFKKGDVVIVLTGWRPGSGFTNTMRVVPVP

Potency, active:
O=c1[nH]c(CN2CCN(c3ccc(O)cc3)CC2)nc2scc(-c3ccc(Cl)cc3)c12 2.82 µM
Cc1cccc(C)c1NC(=O)CSc1nnc(-c2ccco2)c(-c2ccco2)n1 11.2 µM
COc1ccc(CNC(=O)C(c2ccc(C)o2)N(Cc2cccs2)C(=O)Cc2cccs2)cc1 (configuration not stated) 10 µM
Cc1nc(COC(=O)c2ccc(S(=O)(=O)N3CCCC3)cc2)cs1 28.2 µM

Potency, inconclusive:
Fc1ccccc1CSc1ncnc2c1oc1ccccc12 15.8 µM [rising, partial curve]
CCOC(=O)C1=C(C)n2c(s/c(=C3\C(=O)Nc4ccccc43)c2=O)=NC1c1ccc(OC)cc1 (configuration not stated) 28.2 µM [rising, single point]
COc1ccc(OCCOC(=O)c2ccc(-n3cnnn3)cc2)cc1 12.6 µM [rising, partial curve]
Clc1ccc(CSc2nnc(-c3cccnc3)n2Cc2ccco2)c(Cl)c1 0.631 µM [rising, full curve]
CCCC1O[C@@H]2CC3C4CCC5=CC(=O)C=C[C@]5(C)C4C(OC(C)=O)C[C@]3(C)[C@]2(C(=O)COC(C)=O)O1 (some centres not stated) 25.1 µM [rising, single point]
CCC(CC)C(=O)Nc1cccc(C(=O)NCc2ccco2)c1 17.8 µM [rising, partial curve]
Cc1ccc(-c2cc(-c3ccccc3Cl)c(C#N)c(N)n2)o1 7.94 µM [rising, full curve]
O=C(Cc1cccs1)N1CCC(c2nc3c(nnn3Cc3ccc(F)cc3)c(=O)[nH]2)CC1 25.1 µM [rising, single point]
CN(c1ccc(C(=O)N2CCN(Cc3ccccc3)CC2)cc1)S(=O)(=O)c1ccccc1 25.1 µM [rising, partial curve]
Cc1cc(C)n2ncc(S(=O)(=O)c3ccccc3)c2n1 14.1 µM [rising, partial curve]
O=S(=O)(c1ccc2ccccc2c1)N1CCN(S(=O)(=O)N2CCOCC2)CC1 7.08 µM [rising, partial curve]
COc1ccc(-n2c(SCC(=O)NCc3cccs3)nnc2-c2ccoc2C)cc1 0.199 µM [rising, full curve, poor fit]
CCc1nnc(NC(=O)CN2C(=O)c3ccccc3S2(=O)=O)s1 39.8 µM [rising, single point]
Cc1ccc(NC(=O)c2cc(-c3ccc(C)o3)nc3ccccc23)nc1 3.55 µM [rising, full curve]
CN(C)S(=O)(=O)c1ccc(NC(=O)CN2CCCCCC2)cc1 17.8 µM [rising, partial curve]
CCN(CC)CCn1c(=N)n(CC(O)c2ccc(OC)c(OC)c2)c2ccccc21 (configuration not stated) 39.8 µM [rising, single point]
COc1ccc(S(=O)(=O)CCc2nnc(NC(C)=O)s2)cc1 31.6 µM [rising, single point]
CCC1(C)Cc2nc(Cl)c(C#N)cc2CO1 (configuration not stated) 5.62 µM [rising, single point]
CCN(CC)CCn1c(=N)n(CC(O)COc2cccc(C)c2)c2ccccc21 (configuration not stated) 7.08 µM [rising, single point]
N#Cc1c2c(c(N3CCN(CCO)CC3)n3c1nc1ccccc13)CCCC2 0.562 µM [rising, single point]
O=C1CC(c2ccco2)CC2=C1C=Nc1ccccc1N2 (configuration not stated) 17.8 µM [rising, partial curve]
COc1cc(C)c(Cl)c(C)c1S(=O)(=O)NCc1cccnc1 25.1 µM [rising, partial curve]
O=C(NCCc1nc2ccc(Cl)cc2[nH]1)C1CCC(=O)N(Cc2cccc(F)c2)C1 (configuration not stated) 17.8 µM [rising, partial curve]
COC(=O)Nc1nc(-c2cc(Cl)ccc2Cl)cs1 31.6 µM [rising, single point]
O=C1c2ccccc2C(=O)N1Cc1ccc2c(c1)OCO2 31.6 µM [rising, single point]

activation, inactive:
Cc1cc(C(=O)NNS(=O)(=O)c2ccc(C(C)(C)C)cc2)nn1C(C)(C)C -1.76%
Cc1ccc(/C=C/C(=O)NCc2ccc3c(c2)OCO3)o1 20.4%
Cc1cccn2c(=O)c3cc(C(=O)NC4CCCCC4)c(=N)n(Cc4ccc(F)cc4)c3nc12 -8.64% [at 0.46 µM, 0% is enzyme alone, no compound]
O=C(Nc1nnc(-c2ccccc2Cl)o1)c1nc2ccccc2s1 0.0792%
CCOC(=O)COc1ccc(Br)cc1/C=C/c1[nH]c(=O)[nH]c(=O)c1[N+](=O)[O-] 21.3%
O=C(CCCN1C(=O)/C(=C\c2cccs2)SC1=S)Nc1cc([N+](=O)[O-])ccc1O -2.42%
CCOC(=O)C1CCN(C(=O)c2c(C)oc3c2C(=O)c2ccccc2C3=O)CC1 -14.2%
O=C(Nc1nc2ccccc2s1)c1cc(-c2ccco2)nc2ccccc12 1.7%
Nn1cnnc1SC1CCCCC1NS(=O)(=O)c1ccccc1 (configuration not stated) 8.52%
O=C(COc1ccc(/C=C\[N+](=O)[O-])cc1)N1CCOCC1 12.6%
COC(=O)[C@@]1(Cc2ccc(OC)cc2)[C@H]2c3cc(C(=O)N4CCCC4)n(Cc4nc5ccccc5[nH]4)c3C[C@H]2CN1C(=O)c1ccccc1 9.74%
C=CCn1c(C(O)c2ccccc2)nc2ccccc21 (configuration not stated) 1.58%
COc1ccccc1-n1cc(CN2CCN(CC=C(C)C)C(CCO)C2)cn1 (configuration not stated) -2.66%
CC(C)(C)NC(=O)C(c1cccs1)N(CC1CCCO1)C(=O)Cn1nnc(-c2cccs2)n1 (configuration not stated) -1.03%
Cc1ccc(NC(=O)Nc2cccc(F)c2)nc1 -2.77%
Oc1cccc2c(NC(=S)Nc3ccc(OC(F)F)cc3)cccc12 -15.1%
COc1ccc(/C=C2\OC(=O)c3c(OC)cccc32)cc1OC -5.73%
Cn1c(Cc2ccccc2)nnc1SCC(=O)N1CCOCC1 -13.8%
